From the supplement of paper PMC10681739
The full ranking holds about 4,000 sequences; the median of “arbitrary fluorescence units” is about 830, and the highest 2% start at about 6,500. This part holds few or none of the hits.

Molecular target: RUNX1 (UniProt Q01196)
Assay: RUNX1 binding intensity (PBM fluorescence), RUNX1 alone (arbitrary fluorescence units); higher = stronger binding
Settings: RUNX1 concentration 2 nM; ETS1 concentration 0 nM
Protocol: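 gcPBM on 36-bp genomic-derived probes (partner site mutated) containing one RUNX1 site and no ETS1 site. Recombinant human RUNX1 (2 nM) was incubated alone or with ETS1 (25 nM) and detected by anti-RUNX1 antibody fluorescence. Values are medians over 4 replicate spots (not normalised). The probes sit in constant array flanks that are not printed.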
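Further: Full-length recombinant human RUNX1 bound to double-stranded DNA microarray spots, detected with an Alexa488-labelled secondary antibody after the anti-RUNX1 primary, read as scanned spot fluorescence.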

Sequence of UniProt Q01196 (Q01196 whole entry): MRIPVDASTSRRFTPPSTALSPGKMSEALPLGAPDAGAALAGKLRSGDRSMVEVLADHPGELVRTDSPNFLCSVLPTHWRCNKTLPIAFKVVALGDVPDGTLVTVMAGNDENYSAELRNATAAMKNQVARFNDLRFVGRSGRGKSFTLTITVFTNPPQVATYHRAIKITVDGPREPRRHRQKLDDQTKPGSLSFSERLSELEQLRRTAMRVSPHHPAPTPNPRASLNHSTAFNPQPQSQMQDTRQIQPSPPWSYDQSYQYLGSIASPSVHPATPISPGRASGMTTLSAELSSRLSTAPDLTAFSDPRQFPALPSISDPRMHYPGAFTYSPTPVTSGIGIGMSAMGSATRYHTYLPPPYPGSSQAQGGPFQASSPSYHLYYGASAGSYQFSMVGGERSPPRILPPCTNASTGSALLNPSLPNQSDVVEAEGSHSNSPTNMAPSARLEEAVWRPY

Row | Sequence | RUNX1 binding intensity
1 | CCCAGGGCATGAAGGGCCAAACCGCTACTGCCACTG | 780
2 | AGGGAGGTAGTGCGGTAGAATTTTCAGCTATGGGTC | 848
3 | GTAGGGCTGGACGGCAGGCTCCGGGATACCGCCACG | 694
4 | CCGGCAGCAAGTTAGCATGGGCGGACCACACGGGGG | 725
5 | CTGAGGGTGGTTTGGGTGCAGCTCCCTGAAAGGAGA | 761
6 | ACCAGCAACGGAGATCAGATCTCTTGTGGTTATTAT | 875
7 | TGCCACCTGCTTGCTGCCTGTGTAGCCACAAGGGAC | 682
8 | TCCAGGCATCTCCCCCATGTTGGCTCACCGCACTAT | 1170
9 | ATGAATGGGATCTGGCAGCCCAGCCCTGTGGTGGAG | 692
10 | TGGGGCTCTTGCTGCTTATGTGACCACAGCACCTTG | 705
11 | AGGGACGCTGCGGCTGAAGTGGACCGAACTGCCAAG | 735
12 | TGGCTGCGGCTGCCGGGGCAGCGCCTCCTCTAGCAA | 663
13 | GGCCCACCTCCTTATGACTCAGCAGATGCGGCTGTC | 829
14 | GACTGCCTGTTGAAGATTGGCCTCTGCGGTACCACG | 2350
15 | TTGCGTCACGTTCGGCCTGCGAGTTACCGCCCACTC | 928
16 | TGGACACCGGGAATCTGAGCGGCCTGCGGGTCCAGA | 716
17 | CACTCCGCCCCCGCAGTCCCCGCGGCTTCGGCCACG | 1020
18 | GCGCAAGGGAGGACTGCAAGGAGGCCGCAGGTTAAA | 717
19 | ACCTGCACCTCCTCCTCCCTAGACCGCACCCTTCTC | 2650
20 | GGGAGCGGCGCGGTGAGAGAGAGGCGTATGAAGGGG | 735
21 | AGCGTATGAACCACAGGAACTTTCGGGTTTTAAAGA | 1010
22 | CCCACCGCGGCCCACGCCGAGCGTGGTGGAACAGCT | 893
23 | CATGTGACCCACACACCCTACTTTACTCGGAGACAG | 1180
24 | TTTTGTGGTTCTAGAGGGGCAGGCTCCCTGATTGCA | 1510
25 | AGCAACAACAAAGTAAGTGGCGGCCGCAGGGGGAGG | 742
26 | CTTTATGACAGAAGCCGCACCCGGAATTGAAACCAG | 809
27 | TAAACCCTGCTTCATGTCCCTGCGCCCCACAAGGAG | 843

Row | Sequence | RUNX1 binding intensity
28 | GGACCCGCACCCTGGTCCCGCGGGACGGACGGAGGT | 797
29 | AAGGAGGCCACAAGGCCCAACGCAGCAAGTGAAACC | 701
30 | TGGGTGCTGGATTCGGTGAGTGTGGTTCTCATGATG | 724
31 | CTGAAACATGAAACAGACAAAGCCACAAGGTTCGCA | 816
32 | CACCTCCGTCTCACCTGACCCAGAGGCACCGCGAGC | 977
33 | AGTGCTGTGGTTTGACTTTGTTTTTACTGTAGCCAG | 1880
34 | GACCCGGCCACACCACAAGAAAAGGACGTTCCCGTA | 1150
35 | GTTTTAGAGCGGTCAGAGGGGCGGCTTCAGGTTTAG | 808
36 | CCAGGCGTTGCCGGGTTCCCGCGGTCCCGTCCCCCA | 781
37 | GCAGCAAGCAGGTGGCAGGGAGTGGACCCACAGCAT | 683
38 | ACTTACCTCCCGACGTCACAGCCTCCGACACCACAG | 1090
39 | AGAGGCAGTTCAGGGGTGGGAACCGCGCGGAGCTTT | 712
40 | CACTCCCCGTGGGAGGATCTTGGGCTGCGGCTAGGG | 768
41 | CGACTGCGGCAGTCCGCGGAATTCTTGTATCCAGTC | 725
42 | GAGAGGAGACCTGACCACGACAGGAATTGACTTACA | 676
43 | CTCCCGCCTTGCTCCCGGTTTGCGGCCATTGACCGT | 929
44 | GAGACTTAACCCCCACAGCACCGGGAATCAGCCAAC | 792
45 | TCTTTTTATTTGCTGTGCAGTCTCGCCCACAGCACT | 908
46 | AGTCTCGTTTACTGTGCGCTGTGGCCACCTGGCAGC | 788
47 | ACGGTGCGATTCCCCAACTACACCGCACGTCACGGA | 950
48 | CTGGGCCGCAGTTCAGGTGGCTGGCGCAAACTGGAA | 674
49 | CCAGCGTTTGCGCACCCTCTCCGATTAGCGGTCCCA | 813
50 | CACCCGCCCCCCGAAAGTGCCGGTGGTTGGGCTCCG | 789
51 | AGCTGCCGCCCGCCCACAGAGCATCTGGCCACATTT | 962
52 | TTACAGGGGCCGGGAGTGGCCTGCGGGCGGAGAAGT | 738
53 | GGCCGCGCTGCGGTGTGTACAGATTGCCGCGGCGCC | 873
54 | CGTCCCTGAGCAAGCTGCTGCGGCTTTCTGGGCTAG | 780

Row | Sequence | RUNX1 binding intensity
55 | CCTCGGTTCGGAGACGGCGAAAGCAAACCGCAAGGA | 2850
56 | ATACCGGCGCATTCGGATTTTGAAGCCGCAGTGGAC | 742
57 | GAATCACCAGTTCCTCACTCCCACACAACCATGTTG | 1030
58 | GTGACCCTGCGGGCCAGTCACCTCCTCTGAGCCTCA | 774
59 | TTCATCTAGTTCCCGCCACACCCACAGAGAAGCCCA | 1220
60 | ACAACTCCCACAAGGCATTGGGGGGAACACCACGGT | 818
61 | TGGAACCGCGACAGGAGACTCGCGTGTTCAGGGGAG | 706
62 | AACACACAACCACAGACTTATTGCCTGTTTCAGATT | 1510
63 | GCCATGGCCACTTGCTGCTTGTAACCACAGCCCAGA | 821
64 | ACAGTACACCCACACCTAGCTTTACTGTCTGCAGAG | 1040
65 | AGCTGCAGCAGATGGCGGACGACCTCAACGCACAGT | 674
66 | ACGTGCACCGGCGGTTTGCGCGATTCCAGCGTTGCA | 746
67 | GAGACTCAAAGCCACACCTTCCCACTTGCTGCAGCC | 913
68 | CCTCCCCCTGCGGCCGCCACTTACTTTGTTGTTGCT | 1230
69 | CAACATGGTTGTGTGGGAGTGAGGAACTGGTGATTC | 748
70 | CATGATAGTGGTTGGCCAGTCAATGAGGAGACGTAC | 679
71 | GGAGCTACCACAGGCAGACTAACTGCCTGCTAAGCA | 712
72 | TACATAGGCGAAAGTGGCCTGCGGGCGCCGGAGTTG | 673
73 | GCATGAAGACTAACACAAAACCATCAAACCACTCTG | 917
74 | CAGCCACCGCACCTCCTCCTCAGCTTGCTCTGGTGC | 1050
75 | CTCACACCTTACCGCGAGCCCGGGGGAGGCTGACGT | 917
76 | AGCGGCTGCGGCCGGGCCGGGAGGCTGTGTGTGTGC | 794
77 | GGGGGAATCTTGCTGAGGTGAAATAGACCGCTGTGC | 769
78 | GCGAGACGCGGCAGAGGCTTGCGGTTGACCAAAGAA | 3500
79 | CATGATGGAAACCACCACCAGCACTTTCGGCCCTGG | 874
80 | AGAACAGCAGCAAATAAATACCCACCTCAGGACTGC | 778
